In patent US20160108097A1 (UNITED STATES OF AMERICA AS REPRESENTED BY THE SECRETARY …, published 2016):

Molecular target: HIV envelope glycoprotein gp120 (HIV)
Test: ITC, 30 °C, lectin titrated into gp120

B1: griffithsin (GRFT), native domain-swapped dimer (other)
chain: not shown
notes: Lectin; Recombinant, expressed in E. coli; also called dGRFT; native GRFT
**Q.** B1 was tested. Which TΔS did it give?
**A.** The TΔS was -19.2 kcal/mol.

**Q.** And the ΔG?
**A.** Its ΔG is -11.2 kcal/mol.

**Q.** And the ΔH?
**A.** The ΔH was -30.4 kcal/mol.
